Source: the supplement of paper PMC11417369
Some of the results follow.

These sequences were tested on PfSIP2 AP2 domain 1 (GST-tagged) (assay: gcPBM binding intensity (ln(normalized median fluorescence intensity)); higher = stronger DNA binding).
How it was run: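 The highest Masliner-normalised natural-log median intensity across replicate spots of either probe orientation is reported as binding intensity. GST-tagged P. falciparum DNA-binding domains expressed in E. coli were applied for 1 h to an Agilent 4 × 180k array of primer-extended double-stranded 36-bp intergenic genomic probes plus negative controls, and bound protein was detected with Alexa488 anti-GST antibody and scanned at 488 nm.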

Row | Sequence | gcPBM binding intensity (ln)
1 | TAATATATATGTATGGCACACACGGATAAATATATA [CACACA_site930] | 7.04
2 | AAAAAAAATATGAAAACACACATATATAAATAAATA [CACACA_site113] | 6.89
3 | AACAAAATAAGACACACACACAAATGTACCTATATA [CACACA_site7189] | 7.07
4 | TCTTTTTTAAATAAAAGTACAAAAAAAAATAAAAAA [XGTACX_site2670] | 6.93
5 | CAAACAAATATATGTTGTACTTATTATATATACATA [XGTACX_site2998] | 6.95
6 | TTATCATATGTATGCATACACACAAAAAATTATATA [CACACA_site397] | 7.11
7 | ATGTAATTCTTTTACTTTTTTTTTTTTTTTTTTTTT [CACACA_negctrl_site979] | 8.15
8 | ATAAATGAGCCATATTAAATCCGTTACACGGGTGTG [CACACA_negctrl_site1368] | 6.54
9 | AACGGGTAATGCACAAAAAAAAAAAAATAAAATAAA [TGCATGCA_negctrl_site474] | 7.56
10 | AAATTATTTTGTTATCATTATATATAGATTGAATAT [XGTACX_negctrl_site165] | 6.95
11 | TTCTTTTAAATTAGCTGTACGGTTTTCTACATGCAT [XGTACX_site356] | 7.02
12 | TACAATATATTTATAGTGCATATTACTTTTAACTTT | 8.41
13 | TCGTAATAATATAAATGTACTTTATTAATTAAAAGA [XGTACX_site3416] | 7.08
14 | ACATTGCACCCGTGCACACATAGAAAAATAATTCTT [CACACA_site409] | 12.2
15 | GTAGTCCAAAAAAAGCGTACACAGAAAAAAAAAAAA [XGTACX_site4273] | 7.32
16 | ATAACAAAAATCCTTGTGCACTATTTTAATAGAGTC | 10
17 | CATTATGATTAAATATGTACATATTATTATATAAAT [XGTACX_site2477] | 6.92
18 | TACATCTTACTACTTATAATATAATATAGTATGAAT [TGCATGCA_negctrl_site8] | 6.99
19 | ATATAATTTATGTGCACACACTCCTATTTTTAGCTT [CACACA_site50] | 8.99
20 | AAAAAGTAAAAGAAAGCACACACACCGGTATATATG [CACACA_site9281] | 6.67
21 | AAAAAAAATTTTATCTGTACACATTTTTTTCTTTTT [XGTACX_site4229] | 6.78
22 | AATAATAAAATAAAAGTGCATTAATTATAATTCTTT [GTGCAC_site9491] | 8.16

Row | Sequence | gcPBM binding intensity (ln)
23 | AATTATAATAATAATAGTACATAAGTATATAAATAA [XGTACX_site2400] | 7.08
24 | TCTTTCTAAATCTTACAAATTACTAAAATATTTATA [CACACA_negctrl_site87] | 7.04
25 | GAGGAAAAAAAAAAAAGTACATTATATAAGAAAATT [XGTACX_site2610] | 6.81
26 | TTAAATATTTATATTTGTACACAATCAATCATACAC [XGTACX_site5793] | 7.54
27 | AAAAAAAAAAAAAAAAGTACAAATTTAAAAATGTGT [XGTACX_site112] | 7.78
28 | TTGGTTTCTTGTTTTTGTACCCATAATTTGTAATAT [XGTACX_site1248] | 7.52
29 | TGTTTTGTTATTTTTATTTATATAAATAAAGCTATA [GTGCAC_negctrl_site88] | 7.27
30 | CATAAATACAGTAACACACACAAAAAAATATGAATA [CACACA_site6066] | 6.88
31 | ATATATATATTATATGCACACTAATAAGACTATTTA [CACACA_site5880] | 9.55
32 | TTGTTATGCATTGGTTGTACATAAGTATAAGTAATT [XGTACX_site5401] | 7.16
33 | ATATATATATTTTATTGTACAAAAAAAAAAAAAAAA [XGTACX_site6803] | 8.39
34 | TTTGTTTGTAAAATGTTGCACTTTCTTTTGCTGATA | 8.49
35 | ATAGGATTCTCAAAGTGTACTTGTCTACTGTAGTTT [XGTACX_site4202] | 6.83
36 | AAAAAAAAAATATGTACACACATATAAAATACATAA [CACACA_site6869] | 7.2
37 | CCATTATACACAATATGTACATATATATAATCATTT [XGTACX_site7942] | 7.17
38 | ACATATATATATATTACACACACACTAATAAAATAA [CACACA_site7920] | 7.24
39 | TTTCAAGAATTATATAAACACACATACATACACCCA [CACACA_site8592] | 7.31
40 | ATAAGGATCAGACACAAACACACATATATATATATA [CACACA_site558] | 9.31
41 | ATAATTAATCCAAAATGTACTTACATTTTATATGAA [XGTACX_site8888] | 6.91
42 | AAATAATTCATATGTTGTACAGTAATTAAATTTTCT [XGTACX_site6343] | 6.81
43 | TTTTATAATTTATCTAAAAAAAAATAAAATAAAATG [TGCATGCA_negctrl_site429] | 6.92
44 | ATAAAATAAAATAAAAGTACATAAATATATATATAT [XGTACX_site6110] | 9.2

Row | Sequence | gcPBM binding intensity (ln)
45 | TTTTTTTTTCTTTGCACACAGATAACTTGAAATTTG [CACACA_site2185] | 7.09
46 | TCTTTCTATTAAACATGTACTTGTCTAAAGACATAA [XGTACX_site8564] | 6.99
47 | CGAATAAATATATGTAGTACATGTTGTAGATAATTT [XGTACX_site1218] | 7.06
48 | TATATATATTTAAATTGTACATATATTATTCATATG [XGTACX_site911] | 7.22
49 | AATAATATATATTACTGTACTAATATAAGGGACATC [XGTACX_site3744] | 7.33
50 | TTATTTTCTACAAATTGTACATATTTTTTACTACTC [XGTACX_site1394] | 7.04
51 | ATTTATGAAAAAAATACATGCATGTCCATATAAATT [TGCATGCA_site505] | 6.97
52 | TTGTCAAAAATTACACACATAAATGAATAAATAAAT [XGTACX_negctrl_site541] | 6.75
53 | ATATATATATATATATATATAATAAAAGATCATTTA [XGTACX_negctrl_site371] | 9.61
54 | ATAATAAAAAGAAAAAGTACAAATGATTATGTTTGA [XGTACX_site3615] | 6.97
55 | CAAGTATTATATTGCGCATGCAAAGAAGGACACAAA [TGCATGCA_site1024] | 7.51
56 | TTATCTAGTACATACATACACACAACCATGTTATGA [CACACA_site3988] | 7
57 | AATAAATAAATAAGTACACACATATAAATATAAATA [CACACA_site6271] | 7.18
58 | TTCTACATGAAGTTATAAATTAATATTTTAATTTAT [XGTACX_negctrl_site134] | 6.58
59 | TACTTTATTTTTTATACACACACAATATGTATATAT [CACACA_site9184] | 7.17
60 | GTATTTCTTTAATATACACACACCAAAACAAAAAAA [CACACA_site579] | 7.19
61 | TAAGATATAAAAAATGTGCACATTAAAGTATTAATT | 8.15
62 | TGTTATTCTGCATATACACACAAATAACAATTTAAA [CACACA_site6943] | 7.24
63 | TCTTATGATGGAATGTTAAATATTACATTTTGTTTA [TGCATGCA_negctrl_site503] | 6.62
64 | TAATGTTTCAAAATTTAATATACTACAAATATTATA [TGCATGCA_negctrl_site336] | 6.65
65 | ATGAACATCCAATATACACACATATATATTTATATT [CACACA_site829] | 7.19
66 | TTTATATAGAAACACACACACAAAAAAAAAAAAAAA [CACACA_site2646] | 6.99

Row | Sequence | gcPBM binding intensity (ln)
67 | TTACAAAAAAAAAGGCGCGGATGGGGGCAATAGCAA [CACACA_negctrl_site238] | 7.2
68 | CAAAAAAAAAAAAAAACACACATTAAATTATAAAGA [CACACA_site2613] | 6.77
69 | CACATATATACACATACACACACACCCATACACCCA [CACACA_site8505] | 7.35
70 | TTTACATTTTAGGAAGTGCATATAATAAATACTATC | 9.07
71 | TACATAAATACATACACACACATATAACCAATGTAG [CACACA_site5243] | 7.18
72 | ATCACATTCCACGGTACACACTAAAAGAAAAATCAG [CACACA_site5907] | 7.39
73 | ATTTATATTTAATATACACACATTATTTTTTTATAT [CACACA_site574] | 7.14
74 | AGAGTACAAGTAAATACACACATATATATGAAAATA [CACACA_site1079] | 7.03
75 | TATAATATGACAAGAAGTACATATATTTACATATAT [XGTACX_site1571] | 6.91
76 | CATTTCATTAATAAATGTACTTGTGAAGAGAAAAAG [XGTACX_site3115] | 7.17
77 | TATATGTGGGTTTTTTTTATGTGTTTTTCTTTTTTT [CACACA_negctrl_site936] | 6.84
78 | AAAAGATAAAAAGAAGTGCATAATAGGAACAAATAT [GTGCAC_site9717] | 8.07
79 | ACAAAATTTACAAAATGTACAAAATATACAAAATGT [XGTACX_site3543] | 6.88
80 | TATAAACGTATAATATGTACACACACATATATACAA [XGTACX_site1686] | 7.1
81 | ATTATATAGAATTGTACATGCGAATTGTATAACGAT [TGCATGCA_site125] | 7.14
82 | AAAAAAAAAAAAAAAAATATATTTATGAAATAAAAA [TGCATGCA_negctrl_site262] | 7.6
83 | TATTTTTTTTTTTTTTTTTTTTTTATATATACATAT [CACACA_negctrl_site23] | 6.66
84 | TTTCTATTCCATTCAACACACAAAAATGTATGCTTT [CACACA_site1072] | 6.98
85 | AATGGATATTTCTTTATATATATCTTATTTGATTAT [XGTACX_negctrl_site284] | 6.77
86 | TTTTTCTTTCTATTTATCAATATTAAAAAAAAAAAA [CACACA_negctrl_site1629] | 6.93
87 | TTTTTTCAAATTTTCTTTTTTCTTTTGTTTTTTTTG [CACACA_negctrl_site380] | 6.33
88 | TATACATGTATATATTGTACATATGTTTTTTTTACA [XGTACX_site3300] | 6.92
